Data taken from PubChem BioAssay AID686970 (National Center for Advancing Translational Sciences (NCATS), 2013).
The campaign covered roughly 360,000 compounds. About 6,000 (1.7%) were called active. This list was built around the results that the source calls inconclusive (neither active nor inactive); the mix of calls is not that of the screen. Calls come from the whole dose curve; as a rule, active = well fitted cell-killing curve with a large enough effect; inconclusive = small, poorly fitted or top-dose-only effect, or effect the other way; inactive = flat fitted curve, though single readings scatter. No potency is given beside an inconclusive call; the fits are too rough.
Potency is the fitted concentration of half-maximal effect; tags give direction and shape of the fitted curve.

Experiment: qHTS for induction of synthetic lethality in tumor cells producing 2HG: qHTS for the HT-1080-NT fibrosarcoma cell line;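 note: NT is the 2HG producing partner of a matched IDH1 knockdown line; nearly all actives have a fitted effect of over 55% in size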;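 for activity, negative = less viability: 0% = DMSO-treated cells and -100% = media-only wells without cells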
Settings: HT-1080-NT fibrosarcoma viability, CellTiter-Glo ATP luminescence, 48 h; activity, negative = less viability: at 46.1 µM (top of the series) unless noted
Method in brief: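 HT-1080-NT; 750 cells/well; 5% FBS RPMI; 48 h compound, 37 degrees C; CellTiter-Glo luminescence; curve fitting and curve-class assignment.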
For `Cc1ccc(-n2ncc(C(=O)NC3CC3)c2C2CCN(C(=O)OC(C)(C)C)CC2)cc1`, the “activity, negative = less viability” value was inactive: 15.4%. With `Cc1ccc(S(=O)(=O)N(CC(=O)NCCSc2ccccn2)c2ccccc2F)cc1` the Potency was inconclusive [cytotoxic, single point]. With `O=C(CNC1CCCCC1)NN=C(c1ccccc1)c1ccccc1` the “activity, negative = less viability” value was inactive: -1.38%. For `CCOC(=O)c1c(CSc2ccc(CC)cc2)oc2ccc(O)c(CN(C)C)c12`, the Potency was inconclusive [cytotoxic, partial curve, poor fit]. In the case of `Cc1nc2c3cc(F)ccc3n(Cc3ccccc3F)c2s1`, the Potency is reported as active: 20.6 µM. For `COc1ccc(CCN(C)CCCN2CC(c3ccccc3)CC2=O)cc1OC` (stereo not drawn), the “activity, negative = less viability” value was inactive: -2.81%. In the case of `CN(Cc1ccccc1)c1ccc(C(CC(N)=O)NC(=O)Cc2ccc(Br)cc2)cc1[N+](=O)[O-]` (stereo not drawn), the “activity, negative = less viability” value is reported as inactive: -19.4%. With `CC(=O)Nc1cc(-c2cccc(F)c2)cn2c(-c3ccc(F)cc3)cnc12` the Potency was inconclusive [cytotoxic, single point]. With `Cc1ccccc1-c1noc(-c2cccs2)n1` the Potency was inconclusive [rising, full curve, poor fit]. For `COc1cccc(/C=N/NC(=O)CNC(=O)c2ccncc2)c1O`, the “activity, negative = less viability” value was inactive: 14.3%. For `Cc1cc(=O)oc2cc(OCC(=O)NC3(C#N)CCCCC3)c(Cl)cc12`, the “activity, negative = less viability” value was inactive: 9.25%. In the case of `O=C(CSc1ncn[nH]1)N1N=C2/C(=C/c3ccccc3)CCCC2C1c1ccccc1` (stereo not drawn), the Potency is reported as inconclusive [cytotoxic, single point]. In the case of `CC1CN(CC(O)COC(c2ccc(Cl)cc2)c2ccc(Cl)cc2)CC(C)O1` (stereo not drawn), the Potency is reported as inconclusive [cytotoxic, single point]. In the case of `CCSc1ccccc1C(=O)N1CCC2(CC1)CC(=O)c1ccccc1O2`, the “activity, negative = less viability” value is reported as inactive: -1.06%. For `O=C(CSc1nnc2ccccn12)NC(=O)c1ccccc1Cl`, the “activity, negative = less viability” value was inactive: -2.99%. With `O=Cc1ccc(-c2c(-c3ccccc3)oc3c2C(OCCCCO)CCC3)o1` (stereo not drawn) the Potency was inconclusive [cytotoxic, single point]. With `OC(COc1ccc(Cl)cc1)CN1CCC(Cc2ccccc2)CC1` (stereo not drawn) the Potency was inconclusive [cytotoxic, single point]. With `Cn1cc(C(=O)CCl)c2ccccc21` the Potency was inconclusive [cytotoxic, single point]. In the case of `CN(C)N=Nc1nc[nH]c1C(N)=O`, the Potency is reported as inconclusive [cytotoxic, partial curve]. For `O=C(Nc1ccc([N+](=O)[O-])cc1Cl)c1cc(Cl)ccc1O`, the Potency was active: 0.366 µM. With `C=CCSc1n[nH]c(-c2ccc(OC)cc2)n1` the Potency was inconclusive [cytotoxic, single point]. In the case of `S=C(NC1CCCCC1)N1CCOCCOCCN(C(=S)NC2CCCCC2)CCOCCOCC1`, the Potency is reported as inconclusive [cytotoxic, partial curve]. With `Cc1cc(NCCO)nc(-n2nc(C)cc2C)n1` the “activity, negative = less viability” value was inactive: 4.59%. For `CCCOc1ccc(-c2nc(C#N)c(N3CCC(C(N)=O)CC3)o2)cc1`, the Potency was inconclusive [cytotoxic, single point]. In the case of `Cc1nc(NC(=O)c2c(-c3ccccc3Cl)noc2C)sc1C`, the “activity, negative = less viability” value is reported as inactive: 0.11%. With `COc1cccc(Nc2nc(N)nc(-c3oc4ccccc4c3C)n2)c1` the Potency was active: 10 µM. In the case of `COc1cccc(-c2nc(N3CCCCC3)c3ccccc3n2)c1O`, the Potency is reported as inconclusive [cytotoxic, single point]. In the case of `CSc1ncccc1C(=O)Nc1nnc(C2CC2)s1`, the Potency is reported as inconclusive [rising, single point]. In the case of `CCn1c(SC)nnc1C1CCN(CC(=O)Nc2ccccc2N2CCOCC2)CC1`, the “activity, negative = less viability” value is reported as inactive: 4.45%. For `CCc1ccc2c(c1)[C@H]1OCC[C@H]1[C@@H](c1cccs1)N2`, the Potency was active: 4.11 µM. For `CCOc1ccccc1C(=O)N1CCN(c2ccc(C(F)(F)F)cn2)CC1`, the Potency was inconclusive [cytotoxic, single point]. For `CC(=O)c1ccc(-n2cc(-c3ccc(C(C)(C)C)cc3)[n+]3c2SCCC3)cc1`, the Potency was inconclusive [cytotoxic, partial curve]. For `Nc1nc(Nc2ccccc2)nc(NCc2ccccc2)c1[N+](=O)[O-]`, the Potency was inconclusive [cytotoxic, partial curve]. For `O=C(O)C(C(=O)O)=C1C2CC3CC(C2)CC1C3`, the activity, negative = less viability was inconclusive: 30.3%. For `Cc1cccc(C(=O)NCC(=O)N2CCCC2)c1`, the Potency was inconclusive [rising, single point]. In the case of `O=C(/C=C/c1ccccc1)NC(NC(=S)Nc1cccc(O)c1)C(Cl)(Cl)Cl` (stereo not drawn), the Potency is reported as inconclusive [cytotoxic, single point]. In the case of `Cc1nc(N2CCN(C(=O)c3ccco3)CC2)c2oc3ccccc3c2n1`, the Potency is reported as inconclusive [cytotoxic, single point]. With `Oc1c(C(c2ccccn2)N2CCCCC2)cc(Cl)c2cccnc12` (stereo not drawn) the Potency was active: 14.6 µM. For `Cc1c(Cc2ccccc2)sc(NC(=O)c2ccco2)c1C(N)=O`, the Potency was inconclusive [cytotoxic, single point]. In the case of `COc1ccc(/C=C/C(=O)Nc2ccccc2C(=O)NCC(c2ccc(OC)cc2)N(C)C)cc1` (stereo not drawn), the Potency is reported as inconclusive [cytotoxic, single point]. In the case of `CC1(C)CC(=O)C2=C(C1)OC(N)=C(C#N)C2c1cn(-c2ccccc2)nc1-c1ccccc1` (stereo not drawn), the Potency is reported as active: 14.6 µM. For `COc1ccc(Cl)cc1NC(=O)CN1c2ccccc2CC1C` (stereo not drawn), the Potency was inconclusive [cytotoxic, partial curve]. For `CC[C@]12c3[nH]c4ccc(Cl)cc4c3CCN1C(=O)[C@@H](CC(=O)NC/C=C(\C)CCC=C(C)C)C[C@@H]2C(=O)N1CCN(C(=O)C2CC2)CC1`, the Potency was inconclusive [cytotoxic, single point]. With `CCOC(=O)[C@]12CCC=C1N(Cc1ccc(Cl)cc1Cl)C(=O)[C@H](CC(=O)NCc1ccc(C)o1)C2` the Potency was inconclusive [cytotoxic, single point]. For `COc1ccc(CCNCc2c(-c3ccccc3)n(C)c3ccccc23)cc1`, the Potency was inconclusive [cytotoxic, single point]. For `O=C(/C=C1\C(=O)Nc2ccccc21)/C=C1\C(=O)Nc2ccccc21`, the Potency was inconclusive [cytotoxic, single point]. With `CNc1snc(C)c1C(=O)OC(C)C(=O)Nc1ccccc1` (stereo not drawn) the “activity, negative = less viability” value was inactive: -4.11%. With `O=C(CSc1nc(=O)n2cc(Cl)ccc2n1)Nc1cccc2ccccc12` the activity, negative = less viability was inconclusive: -33.7% [cytotoxic]. With `O=[N+]([O-])c1ccc(O)c(/C=N/Nc2ccccn2)c1` the Potency was active: 11.6 µM. With `CCOC(=O)CCCCC(=O)c1[nH]c(=O)[nH]c1CSCCO` the “activity, negative = less viability” value was inactive: 3.79%. For `C=CCOc1ccccc1CN(C(=O)CCl)c1ccc2c(c1)OCO2`, the Potency was active: 3.66 µM. In the case of `CCN1CCN(Cc2ccc(NC(=O)c3cc(NC(=O)c4cc(C)on4)cc(OC)c3)cc2C(F)(F)F)CC1`, the Potency is reported as inconclusive [cytotoxic, single point]. With `COc1cccc(C(=O)Cn2c(=N)n(C)c3ccccc32)c1` the Potency was inconclusive [cytotoxic, single point]. In the case of `CC(C)(C)OC(=O)COc1cc(OCC(=O)OC(C)(C)C)c2c(=O)cc(-c3ccccc3)oc2c1`, the Potency is reported as inconclusive [cytotoxic, single point]. For `O=C(O)CNc1ccccc1C(=O)O`, the “activity, negative = less viability” value was inactive: 7.07%. In the case of `CN1CCN(c2ccc(NC(=S)NC(=O)c3cccc4ccccc34)cc2)CC1`, the Potency is reported as inconclusive [cytotoxic, single point]. With `COCCn1c(SCC(=O)Nc2cccc(OC)c2)nnc1-c1ccc(Cl)cc1` the Potency was inconclusive [cytotoxic, single point]. In the case of `N[C@@H](Cc1cnc[nH]1)C(=O)Nc1ccc2ccccc2c1`, the “activity, negative = less viability” value is reported as inactive: 4.04%. With `CC(N)C(=O)NC(C(=O)NC(C)C(=O)Nc1cccc2ccccc12)C(C)C` (stereo not drawn) the “activity, negative = less viability” value was inactive: 0.038%. For `CCOC(=O)CSCC(=O)Nc1c(C(=O)C2CC2)oc2ccccc12`, the “activity, negative = less viability” value was inactive: 11.1%. With `CCN1CCCC1CN(Cc1cc2ccc(C)cc2[nH]c1=O)C(=S)Nc1cccc(OC)c1` (stereo not drawn) the Potency was inconclusive [cytotoxic, single point]. For `CCO/N=C(\C)c1c(O)c(CC)c(-c2ccccc2)n(-c2ccccc2)c1=O`, the “activity, negative = less viability” value was inactive: 2.54%. In the case of `CCOC(=O)C1=C(C)OC(N)=C(C#N)C1c1cc(F)ccc1F` (stereo not drawn), the Potency is reported as inconclusive [cytotoxic, single point]. In the case of `CNC(=O)c1c(NC(=O)c2ccco2)sc2c1CCC2`, the “activity, negative = less viability” value is reported as inactive: -5.26%. In the case of `CCCCn1nnnc1NCc1ccc(C)cc1`, the “activity, negative = less viability” value is reported as inactive: 0.112%. For `CCCc1cc2c(=O)c(-c3cscn3)c(C(=O)OCC)oc2cc1O`, the Potency was inconclusive [rising, single point]. For `CN(C)CCN(C(=O)C1=COCCO1)c1nc2ccc(Cl)cc2s1`, the Potency was inconclusive [cytotoxic, single point]. For `CCOc1ccc(/C=C/C(O)=C2/C(=O)N(C)C3(C)CC2c2ccccc2O3)cc1OC` (stereo not drawn), the Potency was inconclusive [cytotoxic, full curve]. With `CNc1nc(C)c(C(=O)OCC(=O)OC)s1` the “activity, negative = less viability” value was inactive: -0.0154%. For `Nc1ccccc1-c1ccc(Cl)cc1`, the Potency was inconclusive [cytotoxic, single point]. With `Cc1ccc(Sc2nc([N+](=O)[O-])nn2C)cc1` the Potency was inconclusive [rising, full curve, poor fit]. For `O=C(NCCc1ccccc1)C(=O)Nc1nccs1`, the Potency was inconclusive [rising, single point]. With `Cc1c(Cc2ccccc2)sc(/N=C/c2c(O)ccc3ccccc23)c1C(N)=O` the Potency was inconclusive [cytotoxic, single point].
